# Data taken from the supplement of paper PMC8728848.
# The other results are listed elsewhere or left out.
# B1: DC-SIGN (Canis lupus), XP_853402 (protein)
# chain: AGLCRPCPWKWELFQESCYFFSQTQNTWKESISACQNLRAQLVIINSTEEQKFLKSWNTRNNQRTWIGLSDHHNEGSWKWVDNTPLQLSFWKEGEPNNHGDEDCVELYSDGWNDNRCSTENFWICKKPSSPCPGPGLNDIFEAQKIEWHE
# Legend:
# Assay in all cases: glycan array binding signal (z-score within array); higher = stronger binding
# Settings in all cases: glycan notation: IUPAC condensed, linker removed
# GlcNAc(b1-4)GlcNAc = target: GlcNAc(b1-4)GlcNAc
# In short: (§1)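 Glycan array data were curated from 3228 arrays in the Consortium for Functional Glycomics database and kept only where the protein sequence was available. Glycan names were converted to IUPAC-condensed notation, and columns mapping to the same glycan were averaged. The binding signal is a within-array Z-score, averaged across arrays of the same protein sequence at different concentrations or buffers and across linkers. Negative Z-scores can be read as non-binding.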
# [1] = target: GlcNAc(b1-4)GlcNAc(b1-4)GlcNAc
# In short: as §1
# [2] = target: GlcNAc(b1-4)GlcNAc(b1-4)GlcNAc(b1-4)GlcNAc(b1-4)GlcNAc
# In short: as §1
# [3] = target: GlcNAc(b1-4)GlcNAc(b1-4)GlcNAc(b1-4)GlcNAc(b1-4)GlcNAc(b1-4)GlcNAc
# In short: as §1
# [4] = target: GlcNAc(b1-4)[GlcNAc(b1-6)]GalNAc
# In short: as §1
# [5] = target: GlcNAc(b1-6)Gal(b1-4)GlcNAc
# In short: as §1
# GlcNAc(b1-6)GalNAc = target: GlcNAc(b1-6)GalNAc
# In short: as §1
# GlcNAc3Prop(b1-4)GlcNAc = target: GlcNAc3Prop(b1-4)GlcNAc
# In short: as §1
# [6] = target: GlcNAc6S(b1-3)Gal(b1-4)GlcNAc
# In short: as §1
# Kdn(a2-3)Gal(b1-3)GalNAc = target: Kdn(a2-3)Gal(b1-3)GalNAc
# In short: as §1
# Kdn(a2-3)Gal(b1-3)GlcNAc = target: Kdn(a2-3)Gal(b1-3)GlcNAc
# In short: as §1
# Kdn(a2-3)Gal(b1-4)Glc = target: Kdn(a2-3)Gal(b1-4)Glc
# In short: as §1
# Kdn(a2-3)Gal(b1-4)GlcNAc = target: Kdn(a2-3)Gal(b1-4)GlcNAc
# In short: as §1
# [7] = target: Kdn(a2-3)Gal(b1-4)[Fuc(a1-3)]GlcNAc
# In short: as §1
# Kdn(a2-6)Gal(b1-4)GlcNAc = target: Kdn(a2-6)Gal(b1-4)GlcNAc
# In short: as §1
# [8] = target: Man(a1-2)Man(a1-2)Man(a1-3)Man
# In short: as §1
# [9] = target: Man(a1-2)Man(a1-2)Man(a1-6)[Man(a1-3)]Man
# In short: as §1
# Man(a1-2)Man(a1-3)Man = target: Man(a1-2)Man(a1-3)Man
# In short: as §1
# [10] = target: Man(a1-2)Man(a1-3)[Man(a1-2)Man(a1-6)]Man
# In short: as §1
# [11] = target: Man(a1-2)Man(a1-3)[Man(a1-2)Man(a1-6)]Man(a1-6)[Man(a1-2)Man(a1-2)Man(a1-3)]Man
# In short: as §1
# [12] = target: Man(a1-2)Man(a1-3)[Man(a1-2)Man(a1-6)]Man(a1-6)[Man(a1-2)Man(a1-2)Man(a1-3)]Man(b1-4)GlcNAc(b1-4)GlcNAc
# In short: as §1
# [13] = target: Man(a1-2)Man(a1-3)[Man(a1-6)]Man(a1-6)[Man(a1-2)Man(a1-3)]Man(b1-4)GlcNAc(b1-4)GlcNAc
# In short: as §1
# [14] = target: Man(a1-2)Man(a1-6)[Man(a1-3)]Man(a1-6)[Man(a1-2)Man(a1-2)Man(a1-3)]Man
# In short: as §1
# [15] = target: Man(a1-2)Man(a1-6)[Man(a1-3)]Man(a1-6)[Man(a1-2)Man(a1-2)Man(a1-3)]Man(b1-4)GlcNAc(b1-4)GlcNAc
# In short: as §1
# Man(a1-3)[Man(a1-6)]Man = target: Man(a1-3)[Man(a1-6)]Man
# In short: as §1
# [16] = target: Man(a1-3)[Man(a1-6)]Man(a1-6)[Man(a1-2)Man(a1-3)]Man(b1-4)GlcNAc(b1-4)GlcNAc
# In short: as §1
# [17] = target: Man(a1-3)[Man(a1-6)]Man(a1-6)[Man(a1-3)]Man
# In short: as §1
# [18] = target: Man(a1-3)[Man(a1-6)]Man(a1-6)[Man(a1-3)]Man(b1-4)GlcNAc(b1-4)GlcNAc
# In short: as §1
# [19] = target: Man(a1-3)[Man(a1-6)]Man(b1-4)GlcNAc(b1-4)GlcNAc
# In short: as §1
# Man(a1-6)Man = target: Man(a1-6)Man
# In short: as §1
# Man(b1-4)GlcNAc = target: Man(b1-4)GlcNAc
# In short: as §1
# Neu5Ac(a2-3)Gal = target: Neu5Ac(a2-3)Gal
# In short: as §1
# [20] = target: Neu5Ac(a2-3)Gal(b1-3)GalNAc
# In short: as §1
# [21] = target: Neu5Ac(a2-3)Gal(b1-3)GalNAc(b1-3)Gal(a1-4)Gal(b1-4)Glc
# In short: as §1
# [22] = target: Neu5Ac(a2-3)Gal(b1-3)GalNAc(b1-3)Gal(b1-4)GlcNAc
# In short: as §1
# [23] = target: Neu5Ac(a2-3)Gal(b1-3)GalNAc(b1-4)[Neu5Ac(a2-3)]Gal(b1-4)Glc
# In short: as §1
# [24] = target: Neu5Ac(a2-3)Gal(b1-3)GalNAc6S
# In short: as §1
# [25] = target: Neu5Ac(a2-3)Gal(b1-3)GlcNAc
# In short: as §1
# [26] = target: Neu5Ac(a2-3)Gal(b1-3)GlcNAc(b1-3)Gal(b1-3)GlcNAc
# In short: as §1
# [27] = target: Neu5Ac(a2-3)Gal(b1-3)GlcNAc6S
# In short: as §1
# [28] = target: Neu5Ac(a2-3)Gal(b1-3)[Fuc(a1-4)]GlcNAc
# In short: as §1
# [29] = target: Neu5Ac(a2-3)Gal(b1-3)[Fuc(a1-4)]GlcNAc(b1-3)Gal(b1-3)[Fuc(a1-4)]GlcNAc
# In short: as §1
# [30] = target: Neu5Ac(a2-3)Gal(b1-3)[Fuc(a1-4)]GlcNAc(b1-3)Gal(b1-4)[Fuc(a1-3)]GlcNAc
# In short: as §1
# [31] = target: Neu5Ac(a2-3)Gal(b1-3)[Neu5Ac(a2-3)Gal(b1-4)]GlcNAc
# In short: as §1
# [32] = target: Neu5Ac(a2-3)Gal(b1-3)[Neu5Ac(a2-6)]GalNAc
# In short: as §1
binder,measurement,setting,value
B1,glycan array binding signal (z-score),GlcNAc(b1-4)GlcNAc,-0.177
same,glycan array binding signal (z-score),[1],-0.266
same,glycan array binding signal (z-score),[2],-0.267
same,glycan array binding signal (z-score),[3],-0.109
same,glycan array binding signal (z-score),[4],-0.336
same,glycan array binding signal (z-score),[5],-0.165
same,glycan array binding signal (z-score),GlcNAc(b1-6)GalNAc,-0.014
same,glycan array binding signal (z-score),GlcNAc3Prop(b1-4)GlcNAc,-0.304
same,glycan array binding signal (z-score),[6],-0.305
same,glycan array binding signal (z-score),Kdn(a2-3)Gal(b1-3)GalNAc,-0.257
same,glycan array binding signal (z-score),Kdn(a2-3)Gal(b1-3)GlcNAc,-0.152
same,glycan array binding signal (z-score),Kdn(a2-3)Gal(b1-4)Glc,-0.305
same,glycan array binding signal (z-score),Kdn(a2-3)Gal(b1-4)GlcNAc,-0.288
same,glycan array binding signal (z-score),[7],-0.162
same,glycan array binding signal (z-score),Kdn(a2-6)Gal(b1-4)GlcNAc,-0.26
same,glycan array binding signal (z-score),[8],7.92
same,glycan array binding signal (z-score),[9],0.141
same,glycan array binding signal (z-score),Man(a1-2)Man(a1-3)Man,0.094
same,glycan array binding signal (z-score),[10],3.37
same,glycan array binding signal (z-score),[11],7.69
same,glycan array binding signal (z-score),[12],4.83
same,glycan array binding signal (z-score),[13],2.86
same,glycan array binding signal (z-score),[14],1.56
same,glycan array binding signal (z-score),[15],-0.361
same,glycan array binding signal (z-score),Man(a1-3)[Man(a1-6)]Man,-0.103
same,glycan array binding signal (z-score),[16],11.8
same,glycan array binding signal (z-score),[17],-0.277
same,glycan array binding signal (z-score),[18],0.127
same,glycan array binding signal (z-score),[19],-0.281
same,glycan array binding signal (z-score),Man(a1-6)Man,-0.096
same,glycan array binding signal (z-score),Man(b1-4)GlcNAc,-0.115
same,glycan array binding signal (z-score),Neu5Ac(a2-3)Gal,-0.172
same,glycan array binding signal (z-score),[20],-0.324
same,glycan array binding signal (z-score),[21],0.708
same,glycan array binding signal (z-score),[22],-0.191
same,glycan array binding signal (z-score),[23],-0.157
same,glycan array binding signal (z-score),[24],-0.178
same,glycan array binding signal (z-score),[25],-0.344
same,glycan array binding signal (z-score),[26],-0.147
same,glycan array binding signal (z-score),[27],0.031
same,glycan array binding signal (z-score),[28],-0.173
same,glycan array binding signal (z-score),[29],0.318
same,glycan array binding signal (z-score),[30],-0.201
same,glycan array binding signal (z-score),[31],-0.171
same,glycan array binding signal (z-score),[32],0.063
